Results: the supplement of paper PMC4967469
The IC50 comes from the fitted curve, where viability falls to half of the control; where the fit passes the top or lowest dose, that dose stands as a limit. AUC is the area under the same curve over the 256-fold range up to the top dose, as a fraction: 1 means no effect, lower means more sensitive. For part of these data: The top dose, if marked as inferred, is not printed in the source and was worked back from the curve model. For part of these data: Where an entry number is given, a second screen of the drug exists; the two often differ.

Tests used:
Test in all cases: Viability of human cancer cell lines after 72 h of drug (GDSC screen)
Tretinoin = compound: CC1=C(/C=C/C(C)=C/C=C/C(C)=C/C(=O)O)C(C)(C)CCC1 [Tretinoin]; details: top dose 10 µM; top dose inferred
Method: (§1)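 Human cancer cell lines in 384-well plates, medium with 10% serum, drug for 72 h over a 256-fold dose range (nine 2-fold or five 4-fold steps up to the top dose). Adherent lines were fixed and stained with the nucleic acid dye Syto60, suspension lines read with resazurin; signal relative to control wells, capped at 0 and 100%. One two-parameter sigmoid per drug and line, fitted in a mixed model over all curves with the slope shared within a line.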

GSK690693 = compound: CCn1c(-c2nonc2N)nc2c(C#CC(C)(C)O)ncc(OC[C@H]3CCCNC3)c21 [GSK690693]; details: top dose 10.24 µM; top dose inferred
Method: as §1

UNC0638 = compound: COc1cc2c(NC3CCN(C(C)C)CC3)nc(C3CCCCC3)nc2cc1OCCCN1CCCC1 [UNC0638]
Method: as §1

WH-4-023 = compound: COc1ccc(N(C(=O)Oc2c(C)cccc2C)c2ccnc(Nc3ccc(N4CCN(C)CC4)cc3)n2)c(OC)c1 [WH-4-023]; details: top dose 5.12 µM; top dose inferred
Method: as §1

SB-505124 = compound: Cc1cccc(-c2[nH]c(C(C)(C)C)nc2-c2ccc3c(c2)OCO3)n1 [SB-505124]; details: top dose 10 µM; top dose inferred
Method: as §1

BX-795 = compound: O=C(NCCCNc1nc(Nc2cccc(NC(=O)N3CCCC3)c2)ncc1I)c1cccs1 [BX-795]; details: top dose 5 µM; top dose inferred
Method: as §1

PI-103 = compound: Oc1cccc(-c2nc(N3CCOCC3)c3oc4ncccc4c3n2)c1 [PI-103]; details: top dose 10.24 µM
Method: as §1

[1] = top dose 20 µM, screen: GDSC drug entry 1236, top dose inferred
[2] = top dose 40 µM, screen: GDSC drug entry 245

Cell Line	AUC (Tretinoin)	IC50 (Tretinoin) [µM]	AUC (GSK690693)	IC50 (GSK690693) [µM]	AUC (UNC0638; [1])	IC50 (UNC0638; [1]) [µM]	AUC (UNC0638; [2])	IC50 (UNC0638; [2]) [µM]	AUC (WH-4-023)	IC50 (WH-4-023) [µM]	AUC (SB-505124)	IC50 (SB-505124) [µM]	AUC (BX-795)	IC50 (BX-795) [µM]	AUC (PI-103)	IC50 (PI-103) [µM]
KU812 (chronic myeloid leukaemia, suspension)	0.891	9.9	0.037	< 0.04	0.8	8.67	0.514	2.71	0.857	3.61	0.975	> 10	0.77	1.74	0.09	< 0.04
KURAMOCHI (ovary, adherent)	0.984	> 10	0.971	> 10.2	0.889	> 20	0.865	> 40	0.713	1.43	0.973	> 10	0.957	> 5	0.847	9.42
KY821 (leukaemia, suspension)	0.984	> 10	0.99	> 10.2	0.838	11.2	0.745	11.2	0.978	> 5.12	0.987	> 10	0.877	3.94	0.827	5.22
L-363 (myeloma, suspension)	0.876	7.67	0.808	4.44	0.724	4.87	0.666	6.72	0.986	> 5.12	0.964	> 10	0.812	2.25	0.28	0.169
L-428 (Hodgkin lymphoma, suspension)	0.978	> 10	0.993	> 10.2	0.911	> 20	0.992	> 40	0.986	> 5.12	0.985	> 10	0.976	> 5	0.789	3.95
L-540 (Hodgkin lymphoma, suspension)	0.961	> 10	0.982	> 10.2	0.641	2.93	0.978	> 40	0.919	> 5.12	0.983	> 10	0.846	3.05	0.72	2.48
L-1236 (Hodgkin lymphoma, suspension)	0.877	7.42	0.971	> 10.2	0.871	14	0.715	9.01	0.977	> 5.12	0.986	> 10	0.699	1.02	0.814	4.51
LAMA-84 (chronic myeloid leukaemia, suspension)	0.793	4.64	0.91	> 10.2	0.975	> 20	0.628	5.67	0.044	< 0.02	0.963	> 10	0.693	1.1	0.596	1.18
LAN-6 (neuroblastoma, adherent)	0.983	> 10	0.916	> 10.2	0.732	6.56	0.754	15.8	0.959	> 5.12	0.984	> 10	0.985	> 5	0.877	> 10.2
LB373-MEL-D (melanoma, adherent)	0.99	> 10	0.99	> 10.2	0.823	11.5	0.759	13.8	0.935	> 5.12	0.989	> 10	0.99	> 5	0.971	> 10.2
LB771-HNC (head and neck, adherent)	0.954	> 10	0.946	> 10.2	0.839	19	0.859	> 40	0.894	> 5.12	0.961	> 10	0.976	> 5	0.905	> 10.2
LB831-BLC (bladder, adherent)	0.981	> 10	0.985	> 10.2	0.899	> 20	0.891	> 40	0.344	0.117	0.97	> 10	0.908	> 5	0.762	3.72
LB1047-RCC (kidney, adherent)	0.849	8.99	0.973	> 10.2	0.828	14.6	0.887	> 40	0.341	0.109	0.933	> 10	0.715	1.38	0.901	> 10.2
LB2518-MEL (melanoma, adherent)	0.909	> 10	0.987	> 10.2	0.985	> 20	0.861	37	0.235	0.0519	0.983	> 10	0.985	> 5	0.987	> 10.2
LC4-1 (lymphoblastic leukaemia, suspension)	0.981	> 10	0.759	3.93	0.808	11.7	0.524	2.93	0.949	> 5.12	0.981	> 10	0.923	> 5	0.203	0.0757
LOUCY (T-cell lymphoblastic leukaemia, suspension)	0.73	2.42	0.162	0.0792	0.75	5.52	0.756	11.4	0.991	> 5.12	0.991	> 10	0.793	1.83	0.4	0.359
LP-1 (myeloma, suspension)	0.99	> 10	0.967	> 10.2	0.971	> 20	0.682	7.29	0.993	> 5.12	0.989	> 10	0.974	> 5	0.226	0.123

Cell Line	AUC (Tretinoin)	IC50 (Tretinoin) [µM]	AUC (GSK690693)	IC50 (GSK690693) [µM]	AUC (UNC0638; [1])	IC50 (UNC0638; [1]) [µM]	AUC (UNC0638; [2])	IC50 (UNC0638; [2]) [µM]	AUC (WH-4-023)	IC50 (WH-4-023) [µM]	AUC (SB-505124)	IC50 (SB-505124) [µM]	AUC (BX-795)	IC50 (BX-795) [µM]	AUC (PI-103)	IC50 (PI-103) [µM]
LS-411N (large intestine, adherent)	0.963	> 10	0.749	3.95	0.794	11.5	0.581	4.37	0.908	> 5.12	0.978	> 10	0.917	> 5	0.486	0.582
LS-513 (large intestine, adherent)	0.987	> 10	0.912	> 10.2	0.831	13.3	0.779	17	0.987	> 5.12	0.986	> 10	0.936	> 5	0.726	2.89
LS-1034 (large intestine, adherent)	0.983	> 10	0.952	> 10.2	0.907	> 20	0.662	7.43	0.96	> 5.12	0.982	> 10	0.975	> 5	0.7	2.49
LU-134-A (small cell lung carcinoma, suspension)	0.987	> 10	0.768	4.08	0.812	11.5	0.68	8.27	0.984	> 5.12	0.981	> 10	0.832	3.48	0.633	1.53
LU-165 (small cell lung carcinoma, suspension)	0.979	> 10	0.855	9.77	0.816	12.9	0.795	21.2	0.967	> 5.12	0.986	> 10	0.988	> 5	0.758	3.96
LXF-289 (lung adenocarcinoma, adherent)	0.914	> 10	0.984	> 10.2	0.772	7.59	0.76	13.8	0.664	0.905	0.925	> 10	0.692	1.07	0.925	> 10.2
MC116 (B-cell lymphoma, suspension)	0.999	> 10	0.956	9.08	0.879	10.4	0.812	14.2	0.879	2.67	0.992	> 10	0.96	4.59	0.21	0.128
MC-CAR (haematopoietic neoplasm, suspension)	0.98	> 10	0.775	3.62	0.815	9.54	0.609	4.8	0.952	> 5.12	0.98	> 10	0.83	2.69	0.2	0.094
MDST8 (large intestine, adherent)	0.96	> 10	0.962	> 10.2	0.779	8.08	0.711	9.82	0.986	> 5.12	0.986	> 10	0.876	4.9	0.708	2.46
ME-1 (acute myeloid leukaemia, suspension)	0.947	> 10	0.965	> 10.2	0.988	> 20	0.732	12.1	0.989	> 5.12	0.985	> 10	0.987	> 5	0.794	5.08
MEG-01 (chronic myeloid leukaemia, suspension)	0.905	> 10	0.962	> 10.2	0.681	3.88	0.607	4.81	0.03	< 0.02	0.985	> 10	0.847	3.36	0.538	0.806
MFH-ino (soft tissue, adherent)	0.98	> 10	0.98	> 10.2	0.933	> 20	0.906	> 40	0.386	0.147	0.971	> 10	0.883	> 5	0.784	5.18
MFM-223 (breast, adherent)	0.968	> 10	0.829	6.27	0.988	> 20	0.863	34.1	0.989	> 5.12	0.981	> 10	0.888	> 5	0.786	4.38
MHH-PREB-1 (B-cell leukaemia, suspension)	0.989	> 10	0.989	> 10.2	0.661	3.32	0.539	3.16	0.833	2.83	0.957	> 10	0.888	4.61	0.271	0.155
ML-2 (acute myeloid leukaemia, suspension)	0.969	> 10	0.837	5.79	0.826	10.3	0.624	5.25	0.99	> 5.12	0.986	> 10	0.948	> 5	0.097	< 0.04
MLMA (hairy cell leukaemia, semi-adherent)	0.986	> 10	0.781	4.3	0.769	7.65	0.616	5.22	0.654	0.862	0.944	> 10	0.891	> 5	0.162	0.0586
